Reference: patent publication US11884956B2, “Methods for detecting mycobacteria with solvatochromic dye conjugates” (priority 2016, dated 2024)

Columns and labels:
heat-killed Msmeg cells = assay: DMN-Tre labeling of heat-killed Msmeg; settings: culture filtrates from live Msmeg plus heat-killed cells plus DMN-Tre, flow cytometry; FIG. 13D
From the text: Current microscopy-based methods for TB diagnosis cannot distinguish live from dead mycobacteria. Given that DMN-Tre labeling appears to be of metabolic nature and depend on mycomembrane biosynthesis, it was hypothesized that the methods of the present disclosure would be specific for live bacteria. Indeed, labeling was abrogated by heat killing Msmeg (FIGS. 13A and 13B). […] An interesting question is whether active Ag85 protein released by live cells can cause mycomembrane labeling of nearby dead cells in the presence of DMN-Tre. To answer this question, the culture filtrates from live Msmeg were incubated in growth phase with heat-killed Msmeg cells in the presence of DMN-Tre and analyzed fluorescence of the dead cells by flow cytometry.
Following metabolic labeling (and after fixation for Mtb cells), cells were harvested by centrifugation (3 min, 3,300×g), washed (2×500 microliter (μL) PBS) and resuspended in 300 μL PBS. Fluorescence measurements were taken in 5-mL culture tubes (FisherSci, 14-959A) suitable for flow cytometry. […] This instrument is equipped with a 405 nm violet laser and 488 nm blue laser (for Aqua Amine and FITC channels, respectively) both used to detect DMN-Tre fluorescence. Fluorescence data was obtained for 100,000 cells per sample and processed using FlowJo (Tree Star) software. […]

[1] = test system: Msmeg in stationary phase; assay: Growth phase studies; assay type: cell-based, Mycobacterium smegmatis; settings: 30 minutes; FIG. 13C

## CN(C)c1ccc2c3c(cccc13)C(=O)N(C[C@H]1O[C@H](O[C@H]3O[C@H](CO)[C@@H](O)[C@H](O)[C@H]3O)[C@H](O)[C@@H](O)[C@@H]1O)C2=O [DMN-Tre, 4-N,N-dimethylamino-1,8-naphthalimide-conjugated trehalose]
heat-killed Msmeg cells
  trans-labeling of dead cells by culture filtrates from live Msmeg: no such trans-labeling was observed above the level of autofluorescence
[1]
  labeling in stationary phase versus log phase: continue to label with DMN-Tre, albeit at lower intensity levels than Msmeg in log phase
